Results from the supplement of paper PMC4723716.
The full ranking holds about 3,600 compounds; the median of “viability index relative to DMSO control” is about 0.81, and the lowest 2% start at about 0.13. Some of the results follow.
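Note: 384-well serum-free SaLSSA: MitoTracker Red CMXRos staining with saponin lysis, high-content imaging, treated-well particle count divided by plate-mean count of DMSO wells.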

These molecules were tested on Plasmodium falciparum NF54 stage V gametocytes (assay: viability index relative to DMSO control (fraction); higher = less gametocyte killing). Conditions: 1.25 µM, incubation time: 72 h.
For `Cc1nc(-c2nc3c(s2)CN(C(=O)COc2ccc(Cl)cc2)CC3)cs1`, the viability index was 0.661. `CCOC(=O)c1ccc2nc(-c3ccccc3)cc(O)c2c1` gave a viability index of 1.08. `COc1ccccc1NC(=O)C(=O)NCCc1ccc(OC)c(OC)c1` showed a viability index of 0.413. `CCN1c2ccccc2N(C)C1(C)c1ccccc1` (stereo unspecified) gave a viability index of 0.179. In the case of `COc1ccc(NC(=O)c2cc3cc(C4(O)CCN(CC5CC=CCC5)CC4)ccc3o2)cc1` (stereo unspecified), the viability index is reported as 0.654. For `CC(C)CC(N)C(=O)N1CCn2c(nc(-c3ccccc3)c2Nc2ccc3c(c2)OCO3)C1` (stereo unspecified), the viability index was 0.214. With `CCNC(=O)C1CCN(c2cccc3c2C(=O)N(C2CCCCCCC2)C3=O)CC1` the viability index was 0.981. `CC(C)OCCCNc1sc(S(=O)(=O)c2ccccc2)nc1S(=O)(=O)c1ccc(Cl)cc1` was tested, and the viability index was 0.622. With `CN(C)c1nnc(C(C#N)=Cc2cc(C(=O)c3cccc(Cl)c3)cn2C)o1` the viability index was 0.816. Molecule `CCOC(=O)C1=C(C)NC2=C(C(=O)CC(c3ccc(Cl)cc3)C2)C1c1ccc(F)cc1` (stereo unspecified) has a viability index of 0.728. With `CCCCN(CCCC)S(=O)(=O)c1cc(Br)cc2c1N(C(C)=O)CC2` the viability index was 0.932. Molecule `CCN1CCN(c2cc(C)c3cc(NC(=O)c4cncc(Br)c4)ccc3n2)CC1` has a viability index of 0.801. `COc1ccc(C2CC(=O)C3=C(C2)NC(=O)CC3c2ccc(C(F)(F)F)cc2)cc1OC` (stereo unspecified) was tested, and the viability index was 0.434. Molecule `O=C(CSc1ccc2nnc(-c3cccc(F)c3)n2n1)Nc1ccc2c(c1)OCO2` has a viability index of 0.579. For `Cc1cc(Nc2ccc(C)c(C)c2)n2nc(C)nc2n1`, the viability index was 1.09. `Cc1ccc(-n2c(=S)sc3c(=O)n(-c4ccccc4)c(SCC(=O)c4ccccc4)nc32)cc1C` gave a viability index of 1.08. Work on `CCCCOc1ccc(C=CC(=O)NCc2ccco2)cc1` yielded a viability index of 1.2. For `Cc1ccc(NC(=O)ON=C2CCCC2)cc1`, the viability index was 0.147. `COc1ccc(C2CC(=O)C3=C(C2)NC(C)=C(C(=O)OC2CCCC2)C3c2ccc(OC)cc2)cc1` (stereo unspecified) gave a viability index of 0.732. In the case of `COc1ccc(-c2csc(NC(=O)COc3ccccc3Cl)n2)cc1Br`, the viability index is reported as 0.679. `CCC(C)(C)c1ccc(OCCCC[n+]2cccc(C)c2C)c(C(C)(C)CC)c1` showed a viability index of 0.298. `CC1CN(C)C(C)CC1=NOC(=O)c1ccc(Cl)c(Cl)c1` (stereo unspecified) showed a viability index of 0.954. Work on `O=C(NC1CCN(Cc2ccccc2)CC1)c1cc(-c2ccc(F)cc2)cc(-n2cnnn2)c1` yielded a viability index of 1.12. In the case of `CCOC(=O)C1CCN(C(=O)c2c(C)oc3c2C(=O)c2ccccc2C3=O)CC1`, the viability index is reported as 0.0992. `COc1ccc(CCNC2(Cc3ccccc3)CC(C)N(C)CC2C)cc1OC` (stereo unspecified) was tested, and the viability index was 0.753. `Cc1cc(Nc2ccc(C)c(Cl)c2)n2ncnc2n1` gave a viability index of 1.1. With `COc1ccccc1N1CCN(c2c3c(nc4nncn24)CCC3)CC1` the viability index was 1.16. `CCCCOC(=O)c1ccc(NC2=C(c3ccc(OC)cc3)C(=O)c3ccccc32)cc1` showed a viability index of 0.525. Work on `C=CCNC(=S)N1CCc2c([nH]c3ccccc23)C1C(F)(F)F` (stereo unspecified) yielded a viability index of 0.423. For `CCC(CC)CN1CCC(O)(c2ccc3oc(C(=O)Nc4ccc(OC)c(OC)c4)cc3c2)CC1`, the viability index was 1.14. With `Cc1cc(C)cc(-n2c(C)cc(C=C3SC(=Nc4ccc(Br)cc4)NC3=O)c2C)c1` the viability index was 0.604. With `O=[N+]([O-])c1ccc(-c2ccc(C=NNc3ccccn3)o2)cc1` the viability index was 0.873. Molecule `CCN1c2ccc([N+](=O)[O-])cc2N(CC)C1(C)c1ccccc1` (stereo unspecified) has a viability index of 0.373. `COc1cc([N+](=O)[O-])ccc1NC(=O)CN1CCN(C(=O)c2ccco2)CC1` showed a viability index of 1.03. For `COc1ccc(-c2cn(-c3ccc(OC)cc3)c(SCC(=O)Nc3ccccc3)n2)cc1`, the viability index was 1.04. With `Oc1c(C(Nc2ccccn2)c2cccc(Cl)c2Cl)ccc2cccnc12` (stereo unspecified) the viability index was 0.819. Work on `CCOc1ccc(NC2=C(N3CCOCC3)C(=O)c3ccccc3C2=O)cc1` yielded a viability index of 0.869. `COc1cc(C(=O)NC(C)C)ccc1OC1CCN(CC(c2ccccc2)c2ccccc2)CC1` was tested, and the viability index was 0.399. Work on `C[N+](C)(CCCC(=O)c1ccc(C(=O)CCC[N+](C)(C)Cc2ccccc2Cl)cc1)Cc1ccccc1Cl` yielded a viability index of 1.09. Work on `COc1cc(C(=O)NC(c2cccs2)c2cc(Cl)c3cccnc3c2O)cc(OC)c1OC` (stereo unspecified) yielded a viability index of 1.25. Molecule `COc1ccc(C2c3cccn3-c3ccccc3N2C(=O)CN(C(=O)Nc2ccc(C(F)(F)F)cc2)C2CC2)cc1` (stereo unspecified) has a viability index of 1.07. `COc1cc(C(c2c(C)n(C)n(-c3ccccc3)c2=O)c2c(C)n(C)n(-c3ccccc3)c2=O)cc(Cl)c1OCc1ccccc1` was tested, and the viability index was 0.699. For `Fc1ccc2[nH]c3c(NCCN4CCCCC4)ncnc3c2c1`, the viability index was 0.987. `COc1ccc2c(c1)C=C([C@@H]1C[C@H]3CN(c4ccccc4)C(=O)[C@]34CCCN14)CO2` showed a viability index of 0.904. With `O=C(CSc1nc2ccccc2c(=O)n1C1CC1)Nc1cc(C(F)(F)F)ccc1Cl` the viability index was 0.797. For `COc1ccc(NC2=C(c3ccc(OC)cc3)C(=O)c3ccccc32)cc1`, the viability index was 0.779. Work on `CCN(CC)CCNc1ccnc2ccc([N+](=O)[O-])cc12` yielded a viability index of 1.13. With `Cc1c(C=O)c2ccccc2n1CC(=O)Nc1cccc(I)c1` the viability index was 1.1. Molecule `N=c1c2c(n(Cc3ccccc3)c3c1CCC3)CCC2` has a viability index of 0.87. Work on `CC1=C(C(=O)OC2CCCCC2)C(c2ccc(F)cc2)C2=C(CC(c3ccccc3)CC2=O)N1` (stereo unspecified) yielded a viability index of 0.751. `Cc1cc(Nc2cc(Cl)cc(Cl)c2)n2nc(C)nc2n1` gave a viability index of 1.19. In the case of `CC(C)(C)C(=O)Nc1ccc(C23CC4CC(CC(c5ccccc5)(C4)C2)C3)cc1`, the viability index is reported as 0.562. `FC(F)(F)c1cnc(Sc2nnc(-c3ccncc3)o2)c(Cl)c1` was tested, and the viability index was 0.939. In the case of `CCOc1ccc2[nH]c(=O)c(CN(Cc3ccccc3OC)C(C)=O)cc2c1`, the viability index is reported as 0.882. Work on `CCC(=O)N1CCc2cc(Br)cc(S(=O)(=O)N3CCCCC3CC)c21` (stereo unspecified) yielded a viability index of 0.936. Work on `CCN(CC)CCCNC(=S)N(CCc1cccc(C)c1)Cc1cc2cc(OC)c(OC)cc2[nH]c1=O` yielded a viability index of 0.921. For `COc1ccc(NC(=O)c2cc3cc(C4(O)CCN(CC(C)c5ccccc5)CC4)ccc3o2)cc1` (stereo unspecified), the viability index was 0.856. `CCOc1ccc(C(=O)C[N+]2=C(CC)c3ccc(C)n3CC2)cc1` was tested, and the viability index was 0.599. In the case of `COc1cc(Nc2cncc(-c3ccc(C(N)=O)cc3)n2)cc(OC)c1OC`, the viability index is reported as 0.0179. In the case of `N#Cc1ccc(CNC(=S)Nc2cc(Cl)ccc2Cl)cc1`, the viability index is reported as 0.656. With `Cc1ccc(Nc2nc(-c3ccccn3)cs2)cc1` the viability index was 0.127. For `CC(C)c1ccc(NC(=O)C(Cc2cccs2)c2nnn[nH]2)cc1` (stereo unspecified), the viability index was 0.673. For `O=C(O)c1ccc(C=NNc2ccc([N+](=O)[O-])cc2)cc1`, the viability index was 0.774. Molecule `Cc1cc(NC(c2cccc(Br)c2)c2ccc3cccnc3c2O)no1` (stereo unspecified) has a viability index of 0.785. For `CCN1C(=Cc2ccc3ccccc3[n+]2CC)Sc2cc(NC(C)=O)ccc21`, the viability index was 0.692. `O=C(c1ccc2nc(N3CCCCC3)sc2c1)N1CCN(Cc2ccc3c(c2)OCO3)CC1` was tested, and the viability index was 0.486. Work on `CCOC(=O)c1cnc2ccc(C)cc2c1NCCCN1CCOCC1` yielded a viability index of 0.838. `Cc1cccc(CCNc2cc(C)nc3ncnn23)c1` showed a viability index of 0.982. In the case of `FC(F)(F)c1ccc(-c2nc(C34CC5CC(CC(C5)C3)C4)cs2)cc1`, the viability index is reported as 1.2. `COc1ccc2nc3ccccc3c(N)c2c1` gave a viability index of 0.954. With `C=CCOc1c(Br)cc(C=c2sc3n(c2=O)C(c2ccc(OC)c(OC)c2)C(C(=O)OCC)=C(C)N=3)cc1OC` (stereo unspecified) the viability index was 1.2. In the case of `CCOC(=O)C1=C(C)NC2=C(C(=O)C(C(=O)OC)C(C)C2)C1c1cc(Br)c(OC)c(OC)c1` (stereo unspecified), the viability index is reported as 0.847. With `Cc1ccc(NC(=O)c2c(I)cnn2C)cc1[N+](=O)[O-]` the viability index was 0.634. `Brc1ccc2ncnc(NCC3CCCO3)c2c1` (stereo unspecified) showed a viability index of 1. In the case of `CCc1c2ccc(C)n2cc[n+]1CC`, the viability index is reported as 0.89. Work on `CC(C)c1ccc(NC(=O)C=Cc2ccccc2Cl)cc1` yielded a viability index of 0.734. `CC[n+]1c(C=Cc2ccc(C)cc2)ccc2ccccc21` showed a viability index of 0.826. `Cn1nc(C(F)(F)F)c(C(=O)Nc2cccc(C(F)(F)F)c2)c1SCc1ccc(Cl)cc1` gave a viability index of 1.21. With `COc1ccc(-n2c(SC)nc3sc4c(c3c2=O)CCN(Cc2ccccc2)C4)cc1` the viability index was 0.964. For `Cc1cccc(C)c1NC(=O)CN1C(=O)C(C)(C)Oc2ccc(C(=O)NC(C)(C)C)cc21`, the viability index was 0.826. `Cc1cc(C)nc(NC(=N)Nc2ccccc2O)n1` showed a viability index of 0.868. Molecule `O=C(COc1ccccc1)Nc1nccs1` has a viability index of 0.996. Work on `O=C(Nc1cccc(N2CCC(NCC3CCCCC3)CC2)c1)C1CC1` yielded a viability index of 0.933. `CCCCN(CC)C(=O)CSc1nc2ccccc2c(=O)n1Cc1ccco1` showed a viability index of 0.819. `CCOC(=O)c1ccc(NC(=O)c2sc(NC(=O)c3cc(OC)c(OC)c(OC)c3)c(C(=O)OCC)c2C)cc1` gave a viability index of 0.985. Molecule `CCCOC(=O)C1=C(C)NC2=C(C(=O)CC(c3ccc(OC)c(OC)c3)C2)C1c1ccc(Cl)cc1Cl` (stereo unspecified) has a viability index of 0.243. With `O=C(Nc1ccccc1C(F)(F)F)N1CCC(N2CCCCC2)CC1` the viability index was 1.14. In the case of `O=[N+]([O-])c1ccc(Nc2nc(NN=Cc3ccccc3I)nc(Nc3ccccc3)n2)cc1`, the viability index is reported as 0.985. `CCn1c2c(c(=N)c3ccccc31)CCC2` showed a viability index of 1.09. In the case of `N=c1ccn(CC(=O)N2CCCc3ccccc32)c2ccccc12`, the viability index is reported as 0.533. Work on `Cc1ccc[n+](C(C)C(=O)c2ccc(-c3ccccc3)cc2)c1` (stereo unspecified) yielded a viability index of 0.772.
